The campaign covered roughly 190,000 compounds. About 270 (0.14%) were called active. The shares of active, inactive and inconclusive entries below differ from those in the screen.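 How the source made its calls: active means GTP binding activity at least 20% away from the 100% baseline, either lowered as inhibitor or raised as activator; inconclusive means flagged as likely green fluorescent, judged across all proteins in the well; inactive means the rest.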
The molecules below were run against GTPase HRas (Homo sapiens) (UniProt P01112) (assay: HRas wt fluorescent GTP binding changes, either direction – biochemical, wildtype, bead-based flow cytometry, multiplex, primary screen (AID 759;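 further: 0% = unlabeled GTP competition control and 100% = no-compound control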)). Conditions: GST-Ras wt beads, Bodipy-FL-GTP binding, at 10 µM, actives lie on both sides.
Sequence of UniProt P01112 (P01112 whole entry, looked up): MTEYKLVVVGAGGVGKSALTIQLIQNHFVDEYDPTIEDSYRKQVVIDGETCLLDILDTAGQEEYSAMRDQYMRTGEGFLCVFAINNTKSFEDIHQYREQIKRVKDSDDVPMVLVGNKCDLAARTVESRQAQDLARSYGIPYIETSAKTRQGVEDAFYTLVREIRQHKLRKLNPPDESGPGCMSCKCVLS

SMILES	GTP binding activity
O=C(NCc1ccc2c(c1)OCO2)c1ccc2c(c1)C(=O)N(CC1CCCO1)C2=O (configuration not stated)	inconclusive: 95%
O=c1c2[nH]c3ccc(F)cc3c2ncn1C1CCCCC1	inactive: 102%
c1ccc(-c2nnc3n2N=C(c2ccc4c(c2)OCO4)CS3)nc1	inconclusive: 87%
CCOc1cc(C(=O)NCc2ccc(C)cc2)ccc1OCC(=O)N1CCOCC1	inconclusive: 95%
O=C(COC(=O)c1ccccc1NC(=O)C1CC1)c1ccc2c(c1)OCCO2	inactive: 100%
COc1ccc(N)cc1-n1cnnn1	inactive: 99%
O=C(NNC(=O)C1CCCN(c2ncccn2)C1)c1ccncc1 (configuration not stated)	inactive: 99%
CC1(C)OC(=O)C(=Cc2ccc(-c3ccc(S(N)(=O)=O)cc3)o2)C(=O)O1	inactive: 88%
Cc1cc(C(=O)CSc2nnc(-c3ccccc3)o2)c(C)n1CC1COc2ccccc2O1 (configuration not stated)	inconclusive: 89%
COc1ccc(F)cc1C(=O)C1CCCN(C(=O)c2ocnc2C)C1 (configuration not stated)	inactive: 101%
C/C(=N\NC(=O)c1c[nH]c2ccccc12)c1ccccn1	inconclusive: 83%
Cc1nc2ccc3nc(NC(=O)c4ccc5c(c4)OCCO5)sc3c2s1	inconclusive: 108%
Cc1cc(NC(=S)N(Cc2ccc(Br)cc2)Cc2ccc(C(=O)O)cc2)ccc1Cl	inactive: 98%
C#CCn1cc(/C=N/NC(=O)COc2cccc3cccnc23)c2ccccc21	inconclusive: 100%
CC(=O)N1C(=O)/C(=C2\SC(=S)N(NC(=O)c3ccc(O)cc3)C2=O)c2ccccc21	inconclusive: 74%
COc1ccc(CCNC(=O)C2CCCN2C(=O)NC2CCCCC2)cc1OC (configuration not stated)	active: 122% [activator]
COc1ccc(C(=O)c2ccc([N+](=O)[O-])cc2Cl)cc1	inconclusive: 90%
Cc1ccc(C)c(-n2c3nc(=O)[nH]c(=O)c-3cc3cc([N+](=O)[O-])ccc32)c1	inconclusive: 93%
O=C(CSc1nc2scc(-c3ccccc3)c2c(=O)[nH]1)NC1CCCCC1	inactive: 91%

SMILES	GTP binding activity
CCN(C(=O)Cc1ccc(Br)cc1)C1CCCCC1	inconclusive: 91%
CCC(=O)NCCCCCCNC(=O)CC	inconclusive: 101%
Nc1nonc1C(=O)N/N=C/c1ccc(-c2ccc(Cl)c(C(=O)O)c2)o1	inconclusive: 93%
CN(C)c1ccc(/C=C2\SC(=S)N(Nc3ncc(C(F)(F)F)cc3Cl)C2=O)cc1	inconclusive: 142%
COc1ccc(-n2nc(C(=O)Nc3cc(OC)c(OC)c(OC)c3)c3ccccc3c2=O)c(OC)c1	inconclusive: 96%
COc1cccc(NC(=S)NCc2ccc3c(c2)cc(C)n3C)c1	inconclusive: 94%
CCOc1cc(/C=N/Nc2nc(-c3cccc(S(=O)(=O)N4CCCC4)c3)cs2)ccc1O	inconclusive: 83%
CCC(C)(C)n1nnnc1C(c1cc2cccc(C)c2[nH]c1=O)N1CCCC1 (configuration not stated)	inconclusive: 105%
Cc1ccc(N2C(=O)c3cccc4c(N5CCN(C)CC5)ccc(c34)C2=O)c2cccnc12	inconclusive: 103%
Cc1ccc(/C=N/N(C)C2=NS(=O)(=O)c3ccccc32)o1	active: 66%
CCCC1=NN(C(=O)Cc2ccc([N+](=O)[O-])cc2)C(O)(C(F)(F)F)C1 (configuration not stated)	inactive: 98%
COc1cccc(-c2n[nH]c3c2CCC3)c1	inconclusive: 95%
O=C(C[n+]1ccccc1)Nc1cc(C(F)(F)F)ccc1Cl	inconclusive: 105%
CS(=O)(=O)N1CCC(C(=O)NCc2ccc(F)cc2)CC1	inactive: 98%
Cc1ccc(C(=O)NNC(=O)CSc2nnc3c(n2)[nH]c2ccc(C)cc23)cc1	inconclusive: 88%
CC(C)=C1C2CCC1C1C(=O)N(c3nc(-c4ccccc4)c(C)s3)C(=O)C21 (configuration not stated)	inactive: 100%
CCCC(=O)Nc1ccc2c(c1)nc(CCNC(=O)c1ccccc1)n2C	inconclusive: 102%
Cc1ccc(NC(=O)CS(=O)(=O)c2c[nH]c3ccccc23)c(C)c1	inconclusive: 638%
COc1cc(/C=C2/C(C)=C(C#N)c3nc(N)c(C#N)c(C)c32)ccc1OCC(=O)O	inactive: 85%

SMILES	GTP binding activity
O=C(N/N=C(\c1ccccc1)c1ccccn1)c1cccc([N+](=O)[O-])c1	inconclusive: 78%
N#CCC(=O)Nc1ncc(Cc2ccccc2Cl)s1	inconclusive: 96%
O=C(CSc1nc(-c2ccccc2)cs1)N1CCN(C(=O)c2ccco2)CC1	inconclusive: 96%
Cc1c(NC(=O)CCN2C(=O)c3ccccc3C2=O)c(=O)n(-c2ccccc2)n1C	inactive: 86%
CC1(c2ccccn2)Nc2ccccc2-c2nc3ccccc3n21 (configuration not stated)	inconclusive: 108%
N#Cc1c(-c2ccco2)cc(-c2ccccn2)nc1N	inconclusive: 86%
O=C(Nc1ccccc1)c1ccc(Cn2cc(C(F)(F)F)ccc2=O)cc1	inconclusive: 106%
COC(=O)c1c(N2C(=O)[C@H]3[C@@H](C2=O)[C@]2(C(=O)Nc4c2ccc(C)c4C)N2CCC[C@@H]32)sc(C)c1C	active: 123% [activator]
O=C(CSc1ncccn1)NCc1cccc(Cl)c1	inconclusive: 95%
CNC(=S)NNC(=O)c1cccn(Cc2ccc(Cl)cc2Cl)c1=O	inconclusive: 105%
O=C(O)CSc1ncnc2sc3c(c12)CCCC3	inconclusive: 94%
O=C(CCn1cnnn1)Nc1ccc(Cl)c(Cl)c1	inactive: 103%
Cn1c(=O)c2c(nc(NCC3CCCO3)n2C)n(C)c1=O (configuration not stated)	inconclusive: 110%
OC(COc1ccc2c(c1)OCO2)CN1CCN(c2ccc(F)cc2)CC1 (configuration not stated)	inconclusive: 93%
O=C(Cc1ccccc1)Nc1cccc(-c2nnc(-c3ccco3)o2)c1	inconclusive: 106%
Cc1ccc(Nc2nc(COC(=O)COc3ccc(C=O)cc3)cs2)cc1	inconclusive: 96%
Cc1ccc(NC(=O)COc2ccc(-c3nnco3)cc2)cc1S(=O)(=O)N1CCOCC1	inactive: 94%
COc1ccc(/C=C2/N=C(SCC(=O)Nc3cc(C)on3)N(c3ccccc3)C2=O)cc1	inactive: 81%
O=C(CCc1c[nH]c2ccccc12)NCc1ccco1	inconclusive: 96%
